The other results are listed elsewhere or left out.
tested on: S. aureus RN4220; experiment: growth inhibition call (relative growth <= 0.2); conditions: 50 µM

Growth inhibition call, inactive:
Cc1noc(C)c1NC(=O)N(C)C[C@H]1OCCCC[C@@H](C)Oc2ccc(NS(=O)(=O)c3ccc(F)cc3)cc2C(=O)N([C@@H](C)CO)C[C@H]1C
Cc1ccc(S(=O)(=O)N(C)C[C@H]2Oc3ncc(-c4ccncc4)cc3C(=O)N([C@H](C)CO)C[C@@H]2C)cc1
C[C@@H]1CN([C@H](C)CO)C(=O)c2cccc(NS(=O)(=O)c3cn(C)cn3)c2O[C@@H]1CN(C)Cc1ccc(C(=O)Nc2ccccc2N)cc1
Cc1ccc(S(=O)(=O)Nc2ccc3c(c2)C(=O)N([C@@H](C)CO)C[C@@H](C)[C@@H](CN(C)C(=O)c2ccccc2)OCCCC[C@@H](C)O3)cc1
CN(C)CCCNc1ncnc(N)c1[N+](=O)[O-]
COCC(=O)N(C)C[C@H]1Oc2cc(-c3ccc(C#N)cc3)ccc2S(=O)(=O)N([C@H](C)CO)C[C@@H]1C
CCS(=O)(=O)Nc1ccc2c(c1)C(=O)N(C)C[C@@H](OC)[C@@H](C)CN(CCC(F)(F)F)[C@H](C)CO2
CC(C)NC(=O)N(C)C[C@@H]1Oc2ncc(-c3ccc(C(=O)N(C)C)cc3)cc2C(=O)N([C@@H](C)CO)C[C@@H]1C
CC(C)(O)C#Cc1ccc([C@H]2[C@H](CO)N3CCCCN(S(C)(=O)=O)C[C@@H]23)cc1
C[C@H](CO)N1C[C@H](C)[C@H](CN(C)C(=O)CCN2CCCCC2)Oc2ncc(C#CCN(C)C)cc2C1=O
C[C@@H]1CN([C@H](C)CO)C(=O)Cc2cc(NC(=O)Cn3cnnn3)ccc2O[C@@H]1CN(C)Cc1ccncc1

Source: the antibiotic and cytotoxicity screens of Wong et al. (2023)
